Measured values published in patent US12116397B2, “IL-IR-I binding polypeptide” (Swedish Orphan Biovitrum AB (publ), priority 2017, dated 2024).

target: T1, hIL-1R-I-Fc (Homo sapiens, UniProt P14778); assay: EC50 analysis of Z variants by ELISA target titration; format: binding; conditions: periplasmic Z-ABD; hIL-1R-I-Fc 100 to 0.01 nM; first matured library (Example 4)
T1 construct: purchased Creative BioMart IL1 RI-771H
Method: (§1) A selection of IL-1R-I binding Z variants was subjected to an analysis of response against a dilution series of hIL-1R-1-Fc using ELISA as described above. The target protein hIL-1R-1-Fc was diluted stepwise 1:10 from 100 to 0.01 nM. As a background control, the Z variants were assayed with no target protein added. Obtained data was analyzed using GraphPad Prism 5 and non-linear regression, and the EC50 values (the half maximal effective concentration) were calculated.
as §1, with “calculated. A periplasmic extract with Z12967 (SEQ ID NO:9) was analyzed in parallel for signal comparison.” for “calculated.”
as §1, with “binding” for “binding Z variants”, “20” for “100”, “0.002” for “0.01”, “calculated. Periplasmic extracts with Z12967, Z16065 and Z16218 (corresponding to SEQ ID:9, 268 and 414, respectively) were analyzed in parallel for signal comparison. As negative control, a periplasmic extract of ABD001 was used.” for “calculated.”

T1 sequence (P14778 with tags, fused parts or gaps limits assumed): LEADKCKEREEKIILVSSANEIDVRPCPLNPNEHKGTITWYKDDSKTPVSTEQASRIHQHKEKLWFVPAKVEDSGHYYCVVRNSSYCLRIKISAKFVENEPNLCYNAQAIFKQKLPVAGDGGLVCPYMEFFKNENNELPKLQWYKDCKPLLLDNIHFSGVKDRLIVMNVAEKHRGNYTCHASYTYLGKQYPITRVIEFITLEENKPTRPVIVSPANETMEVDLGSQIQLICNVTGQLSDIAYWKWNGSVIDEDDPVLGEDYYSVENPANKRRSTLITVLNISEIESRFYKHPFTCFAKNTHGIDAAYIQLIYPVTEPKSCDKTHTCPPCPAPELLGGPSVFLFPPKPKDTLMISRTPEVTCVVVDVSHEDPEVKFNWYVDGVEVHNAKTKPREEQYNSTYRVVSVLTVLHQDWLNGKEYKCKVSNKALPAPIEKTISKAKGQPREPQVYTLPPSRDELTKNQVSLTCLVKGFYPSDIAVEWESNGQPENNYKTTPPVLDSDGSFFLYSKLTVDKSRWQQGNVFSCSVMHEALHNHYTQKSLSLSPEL

| Substance | EC50 |
| --- | --- |
| Z15811: IL-1R-I binding Z variant (VDAKYAKEVEEAQMEIFELPNLTRKQYTAFIRKLLDDPSQSSELLSEAKKLNDSQAPK; Engineered IL-1R-I binding polypeptide) | 0.25 nM |
| Z15813: IL-1R-I binding Z variant (VDAKYAKEVDEAYMEIYRLPNLTRKQYTAFIRKLLDDPSQSSELLSEAKKLNDSQAPK; Engineered IL-1R-I binding polypeptide) | 0.35 nM |
| Z15824: IL-1R-I binding Z variant (VDAKYAKEIEEAQMEIFALPNLTRKQYTAFIRKLFDDPSQSSELLSEAKKLNDSQAPK; Engineered IL-1R-I binding polypeptide) | 0.23 nM |
| Z15886: IL-1R-I binding Z variant (VDAKYAKEVERAQMEIFALPNLTRKQYTAFIRKLLDDPSQSSELLSEAKKLNDSQAPK; Engineered IL-1R-I binding polypeptide) | 0.26 nM |
| Z15897: IL-1R-I binding Z variant (VDAKYAKETENAQMEIFALPNLTRKQYTAFIRKLLDDPSQSSELLSEAKKLNDSQAPK; Engineered IL-1R-I binding polypeptide) | 0.25 nM |
| Z15923: IL-1R-I binding Z variant (VDAKYAKETYYAQMEIFTLPNLTRKQYTAFIRKLFDDPSQSSELLSEAKKLNDSQAPK; Engineered IL-1R-I binding polypeptide) | 0.24 nM |
| Z15929: IL-1R-I binding Z variant (VDAKYAKETERAQMEIFALPNLTRRQYTAFIRKLLDDPSQSSELLSEAKKLNDSQAPK; Engineered IL-1R-I binding polypeptide) | 0.24 nM |
| Z15949: IL-1R-I binding Z variant (VDAKYAKETETAQMEIFALPNLTRKQYTAFIRKLLDDPSQSSELLSEAKKLNDSQAPK; Engineered IL-1R-I binding polypeptide) | 0.25 nM |
| Z15960: IL-1R-I binding Z variant (VDAKYAKETEAAQMEIFALPNLTRKQYTAFIRKLLDDPSQSSELLSEAKKLNDSQAPK; Engineered IL-1R-I binding polypeptide) | 0.23 nM |
| Z15978: IL-1R-I binding Z variant (VDAKYAKEVEAAQMEIFNLPNLTRKQYTAFIRKLLDDPSQSSELLSEAKKLNDSQAPK; Engineered IL-1R-I binding polypeptide) | 0.48 nM |
| Z15987: IL-1R-I binding Z variant (VDAKYAKEVEEAQMEIYYLPNLTRKQYTAFIRKLLDDPSQSSELLSEAKKLNDSQAPK; Engineered IL-1R-I binding polypeptide) | 0.23 nM |
| Z15996: IL-1R-I binding Z variant (VDAKYAKEVESAQMEIFNLPNLTRKQYTAFIRKLFDDPSQSSELLSEAKKLNDSQAPK; Engineered IL-1R-I binding polypeptide) | 0.25 nM |
| Z15997: IL-1R-I binding Z variant (VDAKYAKEIEEAQMEIFQLPNLTRKQYTAFIRKLLDDPSQSSELLSEAKKLNDSQAPK; Engineered IL-1R-I binding polypeptide) | 0.25 nM |
| Z15999: IL-1R-I binding Z variant (VDAKYAKEVEIAYMEIFHLPNLTRKQYTAFIRKLLDDPSQSSELLSEAKKLNDSQAPK; Engineered IL-1R-I binding polypeptide) | 0.24 nM |
| Z16000: IL-1R-I binding Z variant (VDAKYAKEAYRAQMEIFALPNLTRKQYTAFIRKLLDDPSQSSELLSEAKKLNDSQAPK; Engineered IL-1R-I binding polypeptide) | 0.24 nM |
| Z16003: IL-1R-I binding Z variant (VDAKYAKEVYIAQMEIYGLPNLTRKQYTAFIRKLFDDPSQSSELLSEAKKLNDSQAPK; Engineered IL-1R-I binding polypeptide) | 0.28 nM |
| Z16004: IL-1R-I binding Z variant (VDAKYAKEVEVAQMEIFSLPNLTRKQYTAFIRKLLDDPSQSSELLSEAKKLNDSQAPK; Engineered IL-1R-I binding polypeptide) | 0.25 nM |
| Z16008: IL-1R-I binding Z variant (VDAKYAKEVEVAQMEIFNLPNLTRRQYTAFIRKLLDDPSQSSELLSEAKKLNDSQAPK; Engineered IL-1R-I binding polypeptide) | 0.23 nM |
| Z16011: IL-1R-I binding Z variant (VDAKYAKEIEVAQMEIFALPNLTRKQYTAFIRKLFDDPSQSSELLSEAKKLNDSQAPK; Engineered IL-1R-I binding polypeptide) | 0.22 nM |
| Z16034: IL-1R-I binding Z variant (VDAKYAKEVEEAQMEIFELPNLTRKQYTAFIRKLFDDPSQSSELLSEAKKLNDSQAPK; Engineered IL-1R-I binding polypeptide) | 0.23 nM |
| Z16041: IL-1R-I binding Z variant (VDAKYAKEIETAQMEIFALPNLTRKQYTAFIRKLFDDPSQSSELLSEAKKLNDSQAPK; Engineered IL-1R-I binding polypeptide) | 0.24 nM |
| Z16042: IL-1R-I binding Z variant (VDAKYAKEVEDAQMEIFGLPNLTRKQYTAFIRKLLDDPSQSSELLSEAKKLNDSQAPK; Engineered IL-1R-I binding polypeptide) | 0.24 nM |
| Z16046: IL-1R-I binding Z variant (VDAKYAKEIYSAQMEIFKLPNLTRKQYTAFIRKLFDDPSQSSELLSEAKKLNDSQAPK; Engineered IL-1R-I binding polypeptide) | 0.27 nM |
| Z16048: IL-1R-I binding Z variant (VDAKYAKEIEEAQMEIYYLPNLTRKQYTAFIRKLFDDPSQSSELLSEAKKLNDSQAPK; Engineered IL-1R-I binding polypeptide) | 0.25 nM |
| Z16049: IL-1R-I binding Z variant (VDAKYAKEVEQAQMEIFSLPNLTRKQYTAFIRKLLDDPSQSSELLSEAKKLNDSQAPK; Engineered IL-1R-I binding polypeptide) | 0.24 nM |
| Z16050: IL-1R-I binding Z variant (VDAKYAKEVEAAQMEIFNLPNLTRRQYTAFIRKLLDDPSQSSELLSEAKKLNDSQAPK; Engineered IL-1R-I binding polypeptide) | 0.23 nM |
| Z16051: IL-1R-I binding Z variant (VDAKYAKEVESAQMEIFALPNLTRKQYTAFIRKLLDDPSQSSELLSEAKKLNDSQAPK; Engineered IL-1R-I binding polypeptide) | 0.25 nM |
| Z16053: IL-1R-I binding Z variant (VDAKYAKETERAQMEIFALPNLTRKQYTAFIRKLLDDPSQSSELLSEAKKLNDSQAPK; Engineered IL-1R-I binding polypeptide) | 0.25 nM |
| Z16054: IL-1R-I binding Z variant (VDAKYAKEAEVAYFEIYALPNLTRKQYTAFIRKLLDDPSQSSELLSEAKKLNDSQAPK; Engineered IL-1R-I binding polypeptide) | 0.24 nM |

same assay, conditions: periplasmic Z-ABD; hIL-1R-I-Fc 100 to 0.01 nM; primary selection (Example 1)

| Substance | EC50 |
| --- | --- |
| Z12891: IL-1R-I binding Z variant (VDAKYAKEQSQAYHEIFKLPNLTRRQYTAFIMKLLDDPSQSSELLSEAKKLNDSQAPK; Engineered IL-1R-I binding polypeptide) | 2.2 nM |
| Z12905: IL-1R-I binding Z variant (VDAKYAKEARAAQGEIYALPNLTRRQYTAFIMKLLDDPSQSSELLSEAKKLNDSQAPK; Engineered IL-1R-I binding polypeptide) | 7.3 nM |
| Z12910: IL-1R-I binding Z variant (VDAKYAKEALSAQQEIFALPNLTRSQYTAFIRKLLDDPSQSSELLSEAKKLNDSQAPK; Engineered IL-1R-I binding polypeptide) | 0.23 nM |
